Test results published in PubChem BioAssay AID179 (DTP/NCI, 2004).
Some entries of the source have several records that differ or are many. This list holds those alone. The source may hold further records. The records of an entry are repeats in other runs, samples, wells, individuals or studies. Records carry a tag for their origin. A, B and so on number the origins entry by entry.

Tested on: CEM cells HIV-1 protection, formazan growth assay
Assay: NCI AIDS Antiviral Assay
Conditions: measured here: growth of uninfected CEM cells
Summary of the method: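 Human CEM cells, uninfected and HIV-1-infected, received five drug concentrations, and growth was read by soluble formazan assay. Compounds giving at least 50% protection were retested; reproducible 100% protection defined confirmed active.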

`Cc1nc2c(Br)cc(Br)cc2c(=O)n1-c1ccccc1NC1OCC(O)C(O)C1O` (configuration not stated) was tested, and the IC50 was 67.6 µM [sample A] and 3.09 µM [sample B].

In the case of `O=S1Cc2nc3ccccc3n2C1c1c(F)cccc1F` (configuration not stated), the IC50 is reported as 9.33 µM [sample A] and > 117 µM [sample B].
